In the RNAGym collection of RNA variant scans (doi:10.1093/nar/gkz1192):
Read counts are not given, so values of variants with three or more changes are uncertain.

B1: CPEB3 Ribozyme (parent)
chain: UAACAGGGGGCCACAGCAGAAGCGUUCACGUCGCAGCCCCUGUCAGAUUCUGGUGAAUCUGCGAAUUCUGCUGUAUAUCUC

Variants of: B1
Test: self-cleavage, relative activity (ratio to wild type); higher = more cleavage; in vitro, sequencing
In short: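 Barcoded CPEB3 ribozyme mutants, produced by rounds of error-prone PCR, self-cleaved while being transcribed with T7 RNA polymerase for 5 hours at 37°C and during a subsequent 15 min DNase I step before EDTA was added. Sequencing of template-switched cDNA on Illumina gave cleaved and total reads, and DNA sequencing assigned barcodes to variants. Each variant's relative activity is its cleaved/total read fraction divided by the unmutated ribozyme's fraction, averaged across three batches. A variant needed a minimum of 5 reads.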

Row | Variant | self-cleavage
1 | A2G C17U G36U | 0.04
2 | A2G C23A C32U U51A U80A | 0.23
3 | A2G C27U A28G A45U U72A | 0.1
4 | A2G C29A U48A A64G U74C | 0.15
5 | A2G C29A U74C | 0.59
6 | A2G C32A U69C A77U U80C | 0.12
7 | A2G C32U A45G U51C | 0.03
8 | A2G C32U G63A U72C | 0.31
9 | A2G C34U A47U G53A U67A U74C | 0.04
10 | A2G C38A U60A | 0.33
11 | A2G C38U U58A A75G | 0.04
12 | A2G C39A U74C | 0.42
13 | A2G C39U A45G A56G U69A A75U | 0.15
14 | A2G C40A A45G U60C U78A | 0.08
15 | A2G C40G U43A U69A A75G | 0.17
16 | A2G C44G A57G U69C U76C | 0
17 | A2G C44U A64G | 0.33
18 | A2G G6A A18G U41C A56G U60A U67C | 0.06
19 | A2G G6A A28G G33A U69C U74G | 0.09
20 | A2G G6A C39G A45U U69C G73A | 0.13
21 | A2G G6A U25C U31A U41C | 0.07

Row | Variant | self-cleavage
22 | A2G G6A U41C A64U | 0.35
23 | A2G G6C U41C A47G A64G U67C U78A | 0.36
24 | A2G G7A A18C A35G U67C U72C | 0.07
25 | A2G G7A A28G | 0.05
26 | A2G G7A A45G A47U | 0.06
27 | A2G G7A A45G A57G U58C | 0.19
28 | A2G G7A C14A A18G U25A | 0.06
29 | A2G G7A C29G U67C U72A | 0.07
30 | A2G G7C C68A | 0.07
31 | A2G G7U A15G G33C A56C A57U | 0.06
32 | A2G G7U C17U U26C U43C U67A | 0.22
33 | A2G G8A A15G U25C U74A | 0.02
34 | A2G G8A A15G U26C U43A | 0.07
35 | A2G G8A A45G | 0.47
36 | A2G G8A A45G U51A A57G | 0.23
37 | A2G G8A G16U U54G U67A | 0.06
38 | A2G G8A U49C U51C U80C | 0.04
39 | A2G G8A U51G G53A G63U U76C | 0.13
40 | A2G G8U C12A C23U A28U G30C U72G | 0.03
41 | A2G G8U U58C U72C U78C U80C | 0.2
42 | A2G G9A A15U A18G A45G | 0.25

Row | Variant | self-cleavage
43 | A2G G9A A15U A28G U67C U69A | 0.06
44 | A2G G9A A20G A45G A65G | 0.23
45 | A2G G9A A28U C68U U69A C71A | 0.1
46 | A2G G9A A28U U67C C68U U69A C71A | 0.03
47 | A2G G9A A65C U78C | 0.05
48 | A2G G9A U25C | 0.09
49 | A2G G9A U41C A65U U67A U78C | 0.11
50 | A2G G9C A15U A21G C39U U48C U49C | 0.06
51 | A2G G9U A77G | 0.1
52 | A2G G9U C11U U31A U49A U60C U66C | 0.13
53 | A2G G9U U80A | 0.47
54 | A2G G10A A15G U41A | 0.09
55 | A2G G10A A47U A64U | 0.14
56 | A2G G10A C68A U72C | 0.17
57 | A2G G10A U26C U31A A57G | 0.02
58 | A2G G10U U31C U67C U72A | 0.07
59 | A2G G10U U51A U58C U69C | 0.06
60 | A2G G19A G24C U48C A56U | 0.06
61 | A2G G19C A28U G33U A75G U80C | 0.05
62 | A2G G19U U25A | 0.32
63 | A2G G22C U54G | 0.38

Row | Variant | self-cleavage
64 | A2G G24U A56G U58A | 0.07
65 | A2G G33A U51C U72A | 0.06
66 | A2G G33A U54A | 0.22
67 | A2G G33A U67C | 0.08
68 | A2G G36A U58C | 0.07
69 | A2G G36A U60A U67A | 0.05
70 | A2G G36A U66C U80C | 0.1
71 | A2G G63U U74C | 1.15
72 | A2G G70A U76C U80A | 0.17
73 | A2G G73A U78A | 1.24
74 | A2G U25A A47U | 0.08
75 | A2G U25A C34U U49C | 0.07
76 | A2G U25A U26C U78C | 0.25
77 | A2G U25C A35G A47U U51C U69A U72A | 0.14
78 | A2G U25C A45G C59A | 0.08
79 | A2G U25C A47G U49A | 0.32
80 | A2G U25C A47G U49A U66C | 0.17
81 | A2G U25C A64G A77U | 0.21
82 | A2G U25C C27A | 0.3
83 | A2G U25C C27A U31A | 0.08
